Measured values reported in a compilation of properties of binary mixtures (doi:10.1016/j.jct.2020.106150).
The densities may have been worked out from excess volumes.

Test: xn = mol fraction of the nth substance listed
Conditions: 100 kPa

SMILES: CCCC[P+](C)(CCCC)CCCC.COS(=O)(=O)[O-] + O=Cc1ccco1
- mass density (293.15 K, x1 = 1): 1062 kg/m3
- mass density (298.15 K, x1 = 1): 1059 kg/m3
- mass density (303.15 K, x1 = 1): 1056 kg/m3
- mass density (308.15 K, x1 = 1): 1053 kg/m3
- mass density (313.15 K, x1 = 1): 1049 kg/m3
- mass density (318.15 K, x1 = 1): 1046 kg/m3
- mass density (323.15 K, x1 = 1): 1043 kg/m3

SMILES: O=Cc1ccco1 + CCCC[P+](C)(CCCC)CCCC.COS(=O)(=O)[O-]
- mass density (293.15 K, x2 = 0): 1160 kg/m3
- mass density (293.15 K, x2 = 0.062): 1151 kg/m3
- mass density (293.15 K, x2 = 0.142): 1141 kg/m3
- mass density (293.15 K, x2 = 0.249): 1126 kg/m3
- mass density (293.15 K, x2 = 0.317): 1117 kg/m3
- mass density (293.15 K, x2 = 0.399): 1108 kg/m3
- mass density (293.15 K, x2 = 0.499): 1098 kg/m3
- mass density (293.15 K, x2 = 0.732): 1079 kg/m3
- mass density (293.15 K, x2 = 0.823): 1073 kg/m3
- mass density (293.15 K, x2 = 0.863): 1071 kg/m3
- mass density (293.15 K, x2 = 0.91): 1068 kg/m3
- mass density (293.15 K, x2 = 0.951): 1065 kg/m3
- mass density (298.15 K, x2 = 0): 1155 kg/m3
- mass density (298.15 K, x2 = 0.142): 1134 kg/m3
- mass density (298.15 K, x2 = 0.191): 1129 kg/m3
- mass density (298.15 K, x2 = 0.249): 1121 kg/m3
- mass density (298.15 K, x2 = 0.317): 1113 kg/m3
- mass density (298.15 K, x2 = 0.399): 1104 kg/m3
- mass density (298.15 K, x2 = 0.499): 1094 kg/m3
- mass density (298.15 K, x2 = 0.624): 1083 kg/m3
- mass density (298.15 K, x2 = 0.732): 1075 kg/m3
- mass density (298.15 K, x2 = 0.823): 1069 kg/m3
- mass density (298.15 K, x2 = 0.863): 1067 kg/m3
- mass density (298.15 K, x2 = 0.91): 1064 kg/m3
- mass density (298.15 K, x2 = 0.951): 1062 kg/m3
- mass density (303.15 K, x2 = 0): 1149 kg/m3
- mass density (303.15 K, x2 = 0.062): 1138 kg/m3
- mass density (303.15 K, x2 = 0.1): 1133 kg/m3
- mass density (303.15 K, x2 = 0.142): 1128 kg/m3
- mass density (303.15 K, x2 = 0.249): 1116 kg/m3
- mass density (303.15 K, x2 = 0.317): 1108 kg/m3
- mass density (303.15 K, x2 = 0.399): 1099 kg/m3
- mass density (303.15 K, x2 = 0.499): 1089 kg/m3
- mass density (303.15 K, x2 = 0.624): 1079 kg/m3
- mass density (303.15 K, x2 = 0.823): 1065 kg/m3
- mass density (303.15 K, x2 = 0.863): 1063 kg/m3
- mass density (303.15 K, x2 = 0.91): 1060 kg/m3
- mass density (303.15 K, x2 = 0.951): 1058 kg/m3
- mass density (308.15 K, x2 = 0): 1144 kg/m3
- mass density (308.15 K, x2 = 0.062): 1133 kg/m3
- mass density (308.15 K, x2 = 0.1): 1128 kg/m3
- mass density (308.15 K, x2 = 0.191): 1118 kg/m3
- mass density (308.15 K, x2 = 0.249): 1111 kg/m3
- mass density (308.15 K, x2 = 0.399): 1095 kg/m3
- mass density (308.15 K, x2 = 0.499): 1086 kg/m3
- mass density (308.15 K, x2 = 0.732): 1068 kg/m3
- mass density (308.15 K, x2 = 0.823): 1062 kg/m3
- mass density (308.15 K, x2 = 0.863): 1060 kg/m3
- mass density (308.15 K, x2 = 0.91): 1057 kg/m3
- mass density (308.15 K, x2 = 0.951): 1055 kg/m3
- mass density (313.15 K, x2 = 0.062): 1126 kg/m3
- mass density (313.15 K, x2 = 0.142): 1117 kg/m3
- mass density (313.15 K, x2 = 0.191): 1112 kg/m3
- mass density (313.15 K, x2 = 0.249): 1107 kg/m3
- mass density (313.15 K, x2 = 0.317): 1099 kg/m3
- mass density (313.15 K, x2 = 0.399): 1091 kg/m3
- mass density (313.15 K, x2 = 0.499): 1082 kg/m3
- mass density (313.15 K, x2 = 0.624): 1072 kg/m3
- mass density (313.15 K, x2 = 0.732): 1064 kg/m3
- mass density (313.15 K, x2 = 0.823): 1058 kg/m3
- mass density (313.15 K, x2 = 0.863): 1056 kg/m3
- mass density (313.15 K, x2 = 0.91): 1054 kg/m3
- mass density (313.15 K, x2 = 0.951): 1052 kg/m3
- mass density (318.15 K, x2 = 0): 1133 kg/m3
- mass density (318.15 K, x2 = 0.1): 1117 kg/m3
- mass density (318.15 K, x2 = 0.191): 1107 kg/m3
- mass density (318.15 K, x2 = 0.317): 1095 kg/m3
- mass density (318.15 K, x2 = 0.399): 1087 kg/m3
- mass density (318.15 K, x2 = 0.624): 1068 kg/m3
- mass density (318.15 K, x2 = 0.732): 1061 kg/m3
- mass density (318.15 K, x2 = 0.823): 1055 kg/m3
- mass density (318.15 K, x2 = 0.863): 1053 kg/m3
- mass density (318.15 K, x2 = 0.91): 1050 kg/m3
- mass density (318.15 K, x2 = 0.951): 1049 kg/m3
- mass density (323.15 K, x2 = 0): 1128 kg/m3
- mass density (323.15 K, x2 = 0.062): 1114 kg/m3
- mass density (323.15 K, x2 = 0.1): 1110 kg/m3
- mass density (323.15 K, x2 = 0.142): 1106 kg/m3
- mass density (323.15 K, x2 = 0.317): 1091 kg/m3
- mass density (323.15 K, x2 = 0.399): 1083 kg/m3
- mass density (323.15 K, x2 = 0.499): 1074 kg/m3
- mass density (323.15 K, x2 = 0.624): 1064 kg/m3
- mass density (323.15 K, x2 = 0.732): 1056 kg/m3
- mass density (323.15 K, x2 = 0.823): 1049 kg/m3
- mass density (323.15 K, x2 = 0.863): 1047 kg/m3
- mass density (323.15 K, x2 = 0.91): 1045 kg/m3
- mass density (323.15 K, x2 = 0.951): 1045 kg/m3
